These results are taken from the supplement of paper PMC7125110.

The labels stand for the following.
B1: glmS ribozyme (parent)
chain: AUAAAAGCGCCAGAACUACAGAAAUGUAGUUGACGAGGAGGAGGUUUAUCGAAUUUUCGGCGGAUGCCUCCAAA

± gives the standard error. Variants at the floor of the assay are shown more often than the library holds them.

What all share (settings): with glucosamine-6-phosphate
Data set [1] covers variants of B1. The data set can be described thus: self-cleavage kobs at 640 uM GlcN6P; higher = faster cleavage; RNA array. Summed up:
(§1)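 A hybridised Cy3 probe tracked barcoded ribozyme variants, transcribed in situ by E. coli RNA polymerase on sequenced MiSeq chips, at 37 °C. The variants received 40 μM to 10 mM glucosamine-6-phosphate in HEPES/KCl/Mg(OAc)2 buffer. kobs came from decay fits and kcat and KM from weighted Michaelis–Menten fits.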

Data set [2] covers variants of B1. The data set can be described thus: self-cleavage kobs at 10000 uM GlcN6P; higher = faster cleavage; RNA array. Put shortly:
as §1

Variants of B1 are the subject of data set [3]. The data set can be described thus: self-cleavage kobs at 40 uM GlcN6P; higher = faster cleavage; RNA array. Put shortly: as §1
The variants in data set [4] derive from B1. Kind of data set: self-cleavage kobs at 2500 uM GlcN6P; higher = faster cleavage; RNA array. Put shortly: as §1
Variants of B1 are the subject of data set [5]. The data set can be described thus: self-cleavage kobs at 160 uM GlcN6P; higher = faster cleavage; RNA array. Summed up:
as §1

Regarding G7U A64C U65G, in the data set with glucosamine-6-phosphate [1], the “self-cleavage kobs at 640 uM GlcN6P” value was under 1e-05 s⁻¹. The “self-cleavage kobs at 10000 uM GlcN6P” value in the data set with glucosamine-6-phosphate [2] was under 1e-05 s⁻¹.

Regarding C8G A15C U31G, the “self-cleavage kobs at 640 uM GlcN6P” value in the data set with glucosamine-6-phosphate [1] is under 1e-05 s⁻¹.

Turning to G59C U65C, the “self-cleavage kobs at 40 uM GlcN6P” value with glucosamine-6-phosphate [3] was under 1e-05 s⁻¹. Further, the “self-cleavage kobs at 10000 uM GlcN6P” value in the data set with glucosamine-6-phosphate [2] was under 1e-05 s⁻¹.

Consider C8G G41C C67G, for which the “self-cleavage kobs at 640 uM GlcN6P” value with glucosamine-6-phosphate [1] was under 1e-05 s⁻¹. Moreover, in the data set with glucosamine-6-phosphate [4], the “self-cleavage kobs at 2500 uM GlcN6P” value was under 1e-05 s⁻¹.

Regarding G7C A24U U46A C68U, the “self-cleavage kobs at 640 uM GlcN6P” value with glucosamine-6-phosphate [1] is under 1e-05 s⁻¹. For the same variant, in the data set with glucosamine-6-phosphate [5], the “self-cleavage kobs at 160 uM GlcN6P” value is under 1e-05 s⁻¹. The “self-cleavage kobs at 10000 uM GlcN6P” value with glucosamine-6-phosphate [2] is under 1e-05 s⁻¹.

In the case of A6G G13A G51U U56C, in the data set with glucosamine-6-phosphate [1], the “self-cleavage kobs at 640 uM GlcN6P” value is under 1e-05 s⁻¹. Also, the “self-cleavage kobs at 160 uM GlcN6P” value in the data set with glucosamine-6-phosphate [5] is under 1e-05 s⁻¹. For the same variant, the “self-cleavage kobs at 2500 uM GlcN6P” value with glucosamine-6-phosphate [4] is under 1e-05 s⁻¹.

For the variant C58A G63C, in the data set with glucosamine-6-phosphate [3], the “self-cleavage kobs at 40 uM GlcN6P” value is under 1e-05 s⁻¹. In addition, the “self-cleavage kobs at 640 uM GlcN6P” value in the data set with glucosamine-6-phosphate [1] is under 1e-05 s⁻¹. Besides, in the data set with glucosamine-6-phosphate [5], the “self-cleavage kobs at 160 uM GlcN6P” value was under 1e-05 s⁻¹. Also, in the data set with glucosamine-6-phosphate [2], the “self-cleavage kobs at 10000 uM GlcN6P” value was under 1e-05 s⁻¹.

As to C58A G63A, in the data set with glucosamine-6-phosphate [3], the “self-cleavage kobs at 40 uM GlcN6P” value was under 1e-05 s⁻¹. Also, in the data set with glucosamine-6-phosphate [2], the “self-cleavage kobs at 10000 uM GlcN6P” value is under 1e-05 s⁻¹.

G7U C67A: the “self-cleavage kobs at 640 uM GlcN6P” value in the data set with glucosamine-6-phosphate [1] is under 1e-05 s⁻¹. Besides, in the data set with glucosamine-6-phosphate [5], the “self-cleavage kobs at 160 uM GlcN6P” value is under 1e-05 s⁻¹.

As for C8G A39U G66A C71U, the “self-cleavage kobs at 640 uM GlcN6P” value with glucosamine-6-phosphate [1] is under 1e-05 s⁻¹. Further, the “self-cleavage kobs at 2500 uM GlcN6P” value in the data set with glucosamine-6-phosphate [4] was under 1e-05 s⁻¹.

On to A6C U49A C50U, for which, in the data set with glucosamine-6-phosphate [1], the “self-cleavage kobs at 640 uM GlcN6P” value was under 1e-05 s⁻¹. The “self-cleavage kobs at 160 uM GlcN6P” value with glucosamine-6-phosphate [5] was under 1e-05 s⁻¹.

For the variant C8A G60C, the “self-cleavage kobs at 640 uM GlcN6P” value in the data set with glucosamine-6-phosphate [1] was under 1e-05 s⁻¹. Further, in the data set with glucosamine-6-phosphate [5], the “self-cleavage kobs at 160 uM GlcN6P” value was under 1e-05 s⁻¹. For the same variant, in the data set with glucosamine-6-phosphate [4], the “self-cleavage kobs at 2500 uM GlcN6P” value is under 1e-05 s⁻¹. The “self-cleavage kobs at 10000 uM GlcN6P” value with glucosamine-6-phosphate [2] is under 1e-05 s⁻¹.

Regarding C8G A36G G60U, in the data set with glucosamine-6-phosphate [1], the “self-cleavage kobs at 640 uM GlcN6P” value is under 1e-05 s⁻¹.

G7C C10A G66U: in the data set with glucosamine-6-phosphate [1], the “self-cleavage kobs at 640 uM GlcN6P” value was under 1e-05 s⁻¹.

In the case of A6C U30A G35U U45G A64U, the “self-cleavage kobs at 640 uM GlcN6P” value with glucosamine-6-phosphate [1] was under 1e-05 s⁻¹.

Consider A6G U31C C34U G37A G38C A48G C50A, for which the “self-cleavage kobs at 640 uM GlcN6P” value with glucosamine-6-phosphate [1] was under 1e-05 s⁻¹. In the data set with glucosamine-6-phosphate [5], the “self-cleavage kobs at 160 uM GlcN6P” value was under 1e-05 s⁻¹.

On to A6G G7C C10U G35U G40U G60A C70G, for which the “self-cleavage kobs at 640 uM GlcN6P” value with glucosamine-6-phosphate [1] was under 1e-05 s⁻¹. The “self-cleavage kobs at 160 uM GlcN6P” value with glucosamine-6-phosphate [5] is under 1e-05 s⁻¹. The “self-cleavage kobs at 2500 uM GlcN6P” value with glucosamine-6-phosphate [4] is under 1e-05 s⁻¹.

Turning to G62A A64C, the “self-cleavage kobs at 40 uM GlcN6P” value with glucosamine-6-phosphate [3] is under 1e-05 s⁻¹. In the data set with glucosamine-6-phosphate [1], the “self-cleavage kobs at 640 uM GlcN6P” value was under 1e-05 s⁻¹. Also, the “self-cleavage kobs at 160 uM GlcN6P” value with glucosamine-6-phosphate [5] was under 1e-05 s⁻¹.

Regarding A6G G63C C71U, in the data set with glucosamine-6-phosphate [1], the “self-cleavage kobs at 640 uM GlcN6P” value is under 1e-05 s⁻¹. The “self-cleavage kobs at 160 uM GlcN6P” value with glucosamine-6-phosphate [5] was under 1e-05 s⁻¹. In addition, the “self-cleavage kobs at 2500 uM GlcN6P” value in the data set with glucosamine-6-phosphate [4] was under 1e-05 s⁻¹.

For the variant G7U A36G G40A A53U, the “self-cleavage kobs at 640 uM GlcN6P” value with glucosamine-6-phosphate [1] is under 1e-05 s⁻¹. In addition, the “self-cleavage kobs at 2500 uM GlcN6P” value with glucosamine-6-phosphate [4] is under 1e-05 s⁻¹.

As to C58A G60C C67U, the “self-cleavage kobs at 40 uM GlcN6P” value with glucosamine-6-phosphate [3] is under 1e-05 s⁻¹. In the data set with glucosamine-6-phosphate [1], the “self-cleavage kobs at 640 uM GlcN6P” value was under 1e-05 s⁻¹. In the data set with glucosamine-6-phosphate [2], the “self-cleavage kobs at 10000 uM GlcN6P” value is under 1e-05 s⁻¹.

For C8A C16U C68A, the “self-cleavage kobs at 640 uM GlcN6P” value in the data set with glucosamine-6-phosphate [1] is under 1e-05 s⁻¹. Besides, in the data set with glucosamine-6-phosphate [5], the “self-cleavage kobs at 160 uM GlcN6P” value is under 1e-05 s⁻¹. Besides, in the data set with glucosamine-6-phosphate [4], the “self-cleavage kobs at 2500 uM GlcN6P” value was under 1e-05 s⁻¹.

In the case of C8G G32A U46C A53U G63C, the “self-cleavage kobs at 640 uM GlcN6P” value with glucosamine-6-phosphate [1] is under 1e-05 s⁻¹. In addition, the “self-cleavage kobs at 2500 uM GlcN6P” value with glucosamine-6-phosphate [4] was under 1e-05 s⁻¹.

Consider A1U U2G A3G C34A A42U G62A, for which the “self-cleavage kobs at 640 uM GlcN6P” value in the data set with glucosamine-6-phosphate [1] was under 1e-05 s⁻¹. The “self-cleavage kobs at 2500 uM GlcN6P” value in the data set with glucosamine-6-phosphate [4] is under 1e-05 s⁻¹.

As to C8G G38A C58G C67G, in the data set with glucosamine-6-phosphate [1], the “self-cleavage kobs at 640 uM GlcN6P” value was 0.000538 ± 0.00013 s⁻¹. Moreover, the “self-cleavage kobs at 160 uM GlcN6P” value with glucosamine-6-phosphate [5] is 0.000186 ± 5e-05 s⁻¹. Further, in the data set with glucosamine-6-phosphate [4], the “self-cleavage kobs at 2500 uM GlcN6P” value was determined as 0.000435 ± 0.00014 s⁻¹.
